These are yes or no findings as the source states them, for the method shown. In cells and extracts the contact can be indirect. Some results given as binding are weak or reduced against the parent protein; the word gives no strength.

The chains behind the UniProt entries cited, without tags or fusion partners.
UniProt Q02248: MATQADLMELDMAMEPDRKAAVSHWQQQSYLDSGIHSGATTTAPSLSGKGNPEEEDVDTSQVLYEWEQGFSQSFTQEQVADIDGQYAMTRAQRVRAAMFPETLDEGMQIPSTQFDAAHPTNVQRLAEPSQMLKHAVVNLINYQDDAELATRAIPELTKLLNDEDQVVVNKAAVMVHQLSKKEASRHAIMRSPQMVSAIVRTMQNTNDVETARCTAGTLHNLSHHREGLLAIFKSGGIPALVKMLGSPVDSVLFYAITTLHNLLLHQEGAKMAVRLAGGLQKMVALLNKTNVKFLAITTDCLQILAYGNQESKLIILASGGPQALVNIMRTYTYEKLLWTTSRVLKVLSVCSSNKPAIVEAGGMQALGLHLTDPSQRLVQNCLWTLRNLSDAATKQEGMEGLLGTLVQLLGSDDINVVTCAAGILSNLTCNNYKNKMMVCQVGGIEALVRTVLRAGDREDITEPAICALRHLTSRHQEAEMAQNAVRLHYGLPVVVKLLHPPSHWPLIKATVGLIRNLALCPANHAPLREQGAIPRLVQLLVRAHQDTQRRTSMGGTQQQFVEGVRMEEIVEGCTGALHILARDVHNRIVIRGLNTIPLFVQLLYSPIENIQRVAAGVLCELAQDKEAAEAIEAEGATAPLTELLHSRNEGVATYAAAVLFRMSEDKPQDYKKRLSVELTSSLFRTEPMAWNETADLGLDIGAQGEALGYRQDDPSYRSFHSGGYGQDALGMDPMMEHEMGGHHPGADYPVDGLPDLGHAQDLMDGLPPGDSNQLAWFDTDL
UniProt O89090: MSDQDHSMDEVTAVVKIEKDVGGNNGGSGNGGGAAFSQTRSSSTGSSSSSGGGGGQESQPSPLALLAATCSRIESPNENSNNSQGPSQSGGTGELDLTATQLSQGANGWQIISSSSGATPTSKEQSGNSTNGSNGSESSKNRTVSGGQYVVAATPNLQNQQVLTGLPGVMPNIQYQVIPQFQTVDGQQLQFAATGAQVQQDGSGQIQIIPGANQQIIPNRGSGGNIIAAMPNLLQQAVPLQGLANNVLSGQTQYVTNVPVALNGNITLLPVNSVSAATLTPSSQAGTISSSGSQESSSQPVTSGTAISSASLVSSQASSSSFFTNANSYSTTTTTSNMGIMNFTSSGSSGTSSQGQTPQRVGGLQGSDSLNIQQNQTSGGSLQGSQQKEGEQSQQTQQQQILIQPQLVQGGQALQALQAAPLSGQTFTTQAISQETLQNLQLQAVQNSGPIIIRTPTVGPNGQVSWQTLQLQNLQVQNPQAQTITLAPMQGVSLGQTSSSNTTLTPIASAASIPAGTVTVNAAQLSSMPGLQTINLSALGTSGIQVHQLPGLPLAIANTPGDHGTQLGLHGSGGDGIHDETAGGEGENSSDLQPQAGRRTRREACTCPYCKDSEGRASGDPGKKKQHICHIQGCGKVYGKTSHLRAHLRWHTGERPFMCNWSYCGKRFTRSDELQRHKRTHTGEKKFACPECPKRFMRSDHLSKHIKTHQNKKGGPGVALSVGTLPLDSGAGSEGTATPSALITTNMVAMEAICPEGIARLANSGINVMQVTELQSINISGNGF
UniProt P02340: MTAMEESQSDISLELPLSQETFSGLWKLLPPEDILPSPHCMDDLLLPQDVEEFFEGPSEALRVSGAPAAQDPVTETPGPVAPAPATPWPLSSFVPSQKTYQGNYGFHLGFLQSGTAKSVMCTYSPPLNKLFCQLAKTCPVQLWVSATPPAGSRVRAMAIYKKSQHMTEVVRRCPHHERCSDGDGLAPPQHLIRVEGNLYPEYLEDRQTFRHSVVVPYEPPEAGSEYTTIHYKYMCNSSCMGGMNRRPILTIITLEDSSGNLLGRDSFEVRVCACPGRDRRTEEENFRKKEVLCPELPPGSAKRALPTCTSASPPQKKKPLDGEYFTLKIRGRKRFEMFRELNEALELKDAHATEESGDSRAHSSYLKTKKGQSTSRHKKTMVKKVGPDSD
UniProt P19785: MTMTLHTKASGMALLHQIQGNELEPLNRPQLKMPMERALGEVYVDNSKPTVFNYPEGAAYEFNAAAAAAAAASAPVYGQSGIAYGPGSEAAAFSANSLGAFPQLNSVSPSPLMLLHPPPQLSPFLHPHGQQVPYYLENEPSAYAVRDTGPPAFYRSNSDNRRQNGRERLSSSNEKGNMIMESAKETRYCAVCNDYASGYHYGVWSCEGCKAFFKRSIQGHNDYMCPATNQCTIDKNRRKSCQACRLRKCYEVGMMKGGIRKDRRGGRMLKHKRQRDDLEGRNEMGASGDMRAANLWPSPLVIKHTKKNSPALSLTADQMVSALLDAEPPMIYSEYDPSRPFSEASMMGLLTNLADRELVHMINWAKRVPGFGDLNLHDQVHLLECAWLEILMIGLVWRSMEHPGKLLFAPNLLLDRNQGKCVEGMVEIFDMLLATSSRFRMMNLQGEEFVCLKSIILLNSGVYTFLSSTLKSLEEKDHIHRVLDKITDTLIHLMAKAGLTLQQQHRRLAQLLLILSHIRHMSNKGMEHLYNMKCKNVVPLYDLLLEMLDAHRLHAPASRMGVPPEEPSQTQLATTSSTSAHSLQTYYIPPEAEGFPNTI
UniProt P08047: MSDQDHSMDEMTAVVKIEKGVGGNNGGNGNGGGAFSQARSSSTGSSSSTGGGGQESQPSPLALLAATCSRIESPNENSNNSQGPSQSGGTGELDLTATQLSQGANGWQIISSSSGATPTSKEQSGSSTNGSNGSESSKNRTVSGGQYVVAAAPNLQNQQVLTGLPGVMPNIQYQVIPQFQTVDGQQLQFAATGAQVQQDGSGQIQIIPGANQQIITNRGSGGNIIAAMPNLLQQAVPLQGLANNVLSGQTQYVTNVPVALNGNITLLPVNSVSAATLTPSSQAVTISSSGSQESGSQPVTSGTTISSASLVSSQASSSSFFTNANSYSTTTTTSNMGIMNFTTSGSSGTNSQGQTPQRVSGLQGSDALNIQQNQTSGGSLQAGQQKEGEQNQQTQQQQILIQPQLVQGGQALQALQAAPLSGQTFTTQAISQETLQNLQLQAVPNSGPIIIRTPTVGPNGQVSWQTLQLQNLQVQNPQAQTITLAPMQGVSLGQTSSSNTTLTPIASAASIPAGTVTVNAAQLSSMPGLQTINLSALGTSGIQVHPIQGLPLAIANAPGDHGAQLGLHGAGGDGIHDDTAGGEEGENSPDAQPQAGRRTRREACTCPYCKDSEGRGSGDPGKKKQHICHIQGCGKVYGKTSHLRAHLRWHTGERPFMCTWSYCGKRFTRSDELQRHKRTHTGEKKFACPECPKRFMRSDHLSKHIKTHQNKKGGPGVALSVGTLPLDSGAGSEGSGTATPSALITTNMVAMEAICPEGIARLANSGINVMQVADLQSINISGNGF
UniProt P03372: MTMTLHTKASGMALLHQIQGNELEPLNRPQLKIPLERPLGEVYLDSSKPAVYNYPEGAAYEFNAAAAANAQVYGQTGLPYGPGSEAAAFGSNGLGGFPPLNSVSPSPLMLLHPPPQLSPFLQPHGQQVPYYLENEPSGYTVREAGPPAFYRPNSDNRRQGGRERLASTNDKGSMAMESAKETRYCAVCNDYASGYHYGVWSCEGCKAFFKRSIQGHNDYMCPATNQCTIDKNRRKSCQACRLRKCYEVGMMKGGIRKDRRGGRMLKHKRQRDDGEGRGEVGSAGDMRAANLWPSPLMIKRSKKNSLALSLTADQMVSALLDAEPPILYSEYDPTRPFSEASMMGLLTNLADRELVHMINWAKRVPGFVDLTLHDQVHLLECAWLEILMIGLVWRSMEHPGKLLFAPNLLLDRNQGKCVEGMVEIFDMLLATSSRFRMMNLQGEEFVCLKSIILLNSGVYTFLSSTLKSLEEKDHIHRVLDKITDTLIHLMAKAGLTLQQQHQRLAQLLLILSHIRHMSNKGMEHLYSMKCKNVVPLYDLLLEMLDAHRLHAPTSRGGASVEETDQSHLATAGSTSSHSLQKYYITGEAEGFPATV

The record followed here is article PMC4196162.

In assay [1] the target is T1, BCL9-2 in primary K19-BCL9-2 mouse mammary tumor cells (mouse (endogenous in primary K19-BCL9-2 mouse tumor cells)) (UniProt Q67FY2).
T1 sequence: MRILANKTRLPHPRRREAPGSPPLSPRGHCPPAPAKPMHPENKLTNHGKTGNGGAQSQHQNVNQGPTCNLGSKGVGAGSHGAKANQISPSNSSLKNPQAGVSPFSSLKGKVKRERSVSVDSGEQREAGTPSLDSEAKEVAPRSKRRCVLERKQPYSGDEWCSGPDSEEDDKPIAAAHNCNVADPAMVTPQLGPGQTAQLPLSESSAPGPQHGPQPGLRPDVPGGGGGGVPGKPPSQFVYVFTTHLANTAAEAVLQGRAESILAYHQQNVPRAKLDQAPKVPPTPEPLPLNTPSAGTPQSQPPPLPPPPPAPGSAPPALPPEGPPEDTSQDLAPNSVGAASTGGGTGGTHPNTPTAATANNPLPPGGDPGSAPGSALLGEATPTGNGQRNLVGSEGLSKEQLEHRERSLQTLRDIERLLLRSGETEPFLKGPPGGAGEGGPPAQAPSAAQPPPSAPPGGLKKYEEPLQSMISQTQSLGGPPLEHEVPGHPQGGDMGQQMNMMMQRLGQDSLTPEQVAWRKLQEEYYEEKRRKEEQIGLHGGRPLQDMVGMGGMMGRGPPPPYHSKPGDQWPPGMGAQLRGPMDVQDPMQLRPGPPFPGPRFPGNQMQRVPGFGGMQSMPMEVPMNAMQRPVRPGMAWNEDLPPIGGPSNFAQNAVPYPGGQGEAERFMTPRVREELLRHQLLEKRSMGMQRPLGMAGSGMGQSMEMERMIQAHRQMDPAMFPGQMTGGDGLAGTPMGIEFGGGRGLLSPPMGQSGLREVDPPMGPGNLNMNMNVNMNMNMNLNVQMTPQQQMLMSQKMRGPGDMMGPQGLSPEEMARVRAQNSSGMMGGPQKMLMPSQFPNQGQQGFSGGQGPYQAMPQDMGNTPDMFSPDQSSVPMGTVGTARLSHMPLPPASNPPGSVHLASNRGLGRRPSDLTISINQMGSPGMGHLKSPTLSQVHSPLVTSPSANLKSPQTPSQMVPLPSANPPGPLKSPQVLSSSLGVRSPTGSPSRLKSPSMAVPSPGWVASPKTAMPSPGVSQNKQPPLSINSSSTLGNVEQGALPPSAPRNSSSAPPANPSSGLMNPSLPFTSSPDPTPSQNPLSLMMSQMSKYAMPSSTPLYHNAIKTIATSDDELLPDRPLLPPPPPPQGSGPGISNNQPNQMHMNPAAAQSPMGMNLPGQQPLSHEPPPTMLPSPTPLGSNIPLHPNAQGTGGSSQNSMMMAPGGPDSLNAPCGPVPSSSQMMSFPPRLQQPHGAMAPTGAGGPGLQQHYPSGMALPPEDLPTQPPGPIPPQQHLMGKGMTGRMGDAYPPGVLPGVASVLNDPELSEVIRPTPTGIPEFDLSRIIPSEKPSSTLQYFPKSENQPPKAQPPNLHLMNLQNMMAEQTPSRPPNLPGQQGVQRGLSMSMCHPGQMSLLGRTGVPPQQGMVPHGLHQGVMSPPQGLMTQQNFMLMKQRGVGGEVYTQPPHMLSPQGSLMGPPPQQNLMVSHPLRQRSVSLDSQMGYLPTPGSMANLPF
Nature of the assay: co-IP; primary K19-BCL9-2 mouse mammary tumor cells, whole cell lysates, Protein A sepharose; Western blot.

Assay [2] concerns the target ß-catenin (mouse) (mouse (endogenous in primary K19-BCL9-2 mouse tumor cells)) (UniProt Q02248). Described as above.
Assay [3] deals with Sp1 (mouse) (mouse (endogenous in primary K19-BCL9-2 mouse tumor cells)) (UniProt O89090). The assay is described as above.
Assay [4] concerns the target T2, Pygo2 (human (endogenous in MCF7 and T47D)) (UniProt Q9BRQ0).
T2 sequence: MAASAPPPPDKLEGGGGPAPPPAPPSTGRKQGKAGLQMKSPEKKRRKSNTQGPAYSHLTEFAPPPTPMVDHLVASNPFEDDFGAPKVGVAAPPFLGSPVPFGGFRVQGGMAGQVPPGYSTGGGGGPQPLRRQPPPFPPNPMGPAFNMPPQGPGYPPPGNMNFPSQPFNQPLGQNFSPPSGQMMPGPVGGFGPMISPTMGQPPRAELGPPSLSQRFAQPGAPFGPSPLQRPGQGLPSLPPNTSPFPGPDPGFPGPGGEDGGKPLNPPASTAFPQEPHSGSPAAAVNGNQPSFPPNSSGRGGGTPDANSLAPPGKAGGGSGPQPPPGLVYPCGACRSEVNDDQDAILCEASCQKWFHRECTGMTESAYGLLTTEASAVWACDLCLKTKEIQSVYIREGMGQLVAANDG
Nature of the assay: co-IP; endogenous proteins, T47D whole cell lysates, Protein A sepharose; Western blot.

Assay [5] concerns the target T2, Pygo2 (human (endogenous in MCF7 and T47D)). The assay is described as follows: co-IP; endogenous proteins, MCF7 whole cell lysates, Protein A sepharose; mouse and rabbit IgG as negative controls; Western blot.
In assay [6] the target is T3, BCL9-2 (BCL9L, B-Cell Lymphoma 9-like) (human (endogenous in MCF7 and T47D)) (UniProt Q86UU0).
T3 sequence: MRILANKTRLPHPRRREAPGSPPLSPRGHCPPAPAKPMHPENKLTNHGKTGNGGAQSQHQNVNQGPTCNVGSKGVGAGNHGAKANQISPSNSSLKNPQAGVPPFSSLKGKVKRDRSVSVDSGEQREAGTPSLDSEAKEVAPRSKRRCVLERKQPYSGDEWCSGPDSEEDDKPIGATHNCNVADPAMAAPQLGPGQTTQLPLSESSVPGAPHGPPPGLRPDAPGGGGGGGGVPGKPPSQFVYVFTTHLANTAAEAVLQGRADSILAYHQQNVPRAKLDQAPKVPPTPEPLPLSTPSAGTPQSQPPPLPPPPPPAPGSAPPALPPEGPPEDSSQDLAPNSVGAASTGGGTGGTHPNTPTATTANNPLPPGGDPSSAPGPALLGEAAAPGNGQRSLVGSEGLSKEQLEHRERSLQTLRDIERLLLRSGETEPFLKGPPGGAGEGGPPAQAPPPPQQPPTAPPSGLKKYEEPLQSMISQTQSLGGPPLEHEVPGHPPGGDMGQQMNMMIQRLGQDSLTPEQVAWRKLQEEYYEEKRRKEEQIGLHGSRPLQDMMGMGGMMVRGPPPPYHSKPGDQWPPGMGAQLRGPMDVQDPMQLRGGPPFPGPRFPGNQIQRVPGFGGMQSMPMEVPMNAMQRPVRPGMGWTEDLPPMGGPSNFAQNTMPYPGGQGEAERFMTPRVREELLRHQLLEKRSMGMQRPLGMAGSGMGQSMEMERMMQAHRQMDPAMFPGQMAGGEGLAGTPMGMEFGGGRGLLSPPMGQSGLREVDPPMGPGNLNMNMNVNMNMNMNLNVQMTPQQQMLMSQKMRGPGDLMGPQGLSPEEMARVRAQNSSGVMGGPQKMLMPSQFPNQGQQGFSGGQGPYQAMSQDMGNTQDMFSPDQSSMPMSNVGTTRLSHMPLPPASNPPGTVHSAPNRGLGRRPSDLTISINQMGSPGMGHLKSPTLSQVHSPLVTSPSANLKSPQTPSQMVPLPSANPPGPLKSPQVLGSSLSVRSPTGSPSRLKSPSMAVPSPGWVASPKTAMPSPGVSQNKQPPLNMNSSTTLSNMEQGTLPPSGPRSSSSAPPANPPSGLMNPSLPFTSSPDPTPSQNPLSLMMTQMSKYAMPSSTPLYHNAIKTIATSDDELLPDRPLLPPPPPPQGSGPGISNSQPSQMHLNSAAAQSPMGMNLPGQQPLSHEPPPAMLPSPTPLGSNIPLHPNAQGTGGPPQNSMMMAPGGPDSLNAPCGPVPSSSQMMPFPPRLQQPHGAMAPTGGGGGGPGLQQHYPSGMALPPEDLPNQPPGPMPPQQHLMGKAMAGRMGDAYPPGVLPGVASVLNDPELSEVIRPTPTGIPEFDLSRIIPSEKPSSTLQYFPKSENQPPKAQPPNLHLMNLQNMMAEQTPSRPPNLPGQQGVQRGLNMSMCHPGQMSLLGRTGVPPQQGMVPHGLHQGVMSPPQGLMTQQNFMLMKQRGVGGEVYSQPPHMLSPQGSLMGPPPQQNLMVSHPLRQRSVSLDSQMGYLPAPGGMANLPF
The assay is described as follows: co-IP; endogenous proteins, T47D whole cell lysates, Protein A sepharose; Western blot.

The target in assay [7] is T3, BCL9-2 (BCL9L, B-Cell Lymphoma 9-like) (human (endogenous in MCF7 and T47D)). The assay is described as follows: co-IP; endogenous proteins, MCF7 whole cell lysates, Protein A sepharose; mouse and rabbit IgG as negative controls; Western blot. In general terms: In western blotting, separated proteins are transferred to a membrane and probed.
The target in assay [8] is ß-catenin (human (endogenous in MCF7 and T47D)) (UniProt P35222). The assay is described as follows: co-IP; endogenous proteins, T47D whole cell lysates, Protein A sepharose; Western blot.
Assay [9] shares this target. Nature of the assay: co-IP; endogenous proteins, MCF7 whole cell lysates, Protein A sepharose; mouse and rabbit IgG as negative controls; Western blot.

Consider p53 (mouse) (from UniProt P02340 1-390), for which the binding result in [1] and in assay [2] was “no binding” throughout.

As to “estrogen receptor alpha (ER) (mouse) (from UniProt P19785 1-599)”, the binding result in assay [1] and in assay [3] was “no binding” in each case.

With “Sp1 (specificity protein 1) (from UniProt P08047 1-785)”, the binding result in [4] and in [5] was “binds weakly” throughout.

“estrogen receptor alpha (ER) (from UniProt P03372 1-595)”: the binding entry in assay [4], in assay [6], in assay [5] and in assay [7] was “no binding” in each case.

In the case of p53 (from UniProt P04637 1-393), the binding result in assay [6], in assay [8], in [7] and in assay [9] was “no binding” throughout.
